# Experimental data as given in PubChem BioAssay AID624417 (National Center for Advancing Translational Sciences (NCATS), 2012).
# “And” between values parts separate entries of the source, which are not always exact repeats. Identical values can stand only once. The whole screen tested about 410,000 compounds, of which about 6,400 (1.6%) were called active. The shares of active, inactive and inconclusive entries below differ from those in the screen. Calls come from the whole dose curve; as a rule, active = well fitted inhibition curve with a large enough effect; inconclusive = small, poorly fitted or top-dose-only effect; inactive = no such curve, though single readings can be large or run the other way. A potency beside an inconclusive call is a rough fit, not a confirmed value.
# Target: Glucagon-like peptide 1 receptor (Homo sapiens) (UniProt P43220)
# Assay: qHTS of GLP-1 Receptor Inverse Agonists (Inhibition Mode); note: nearly all actives have a fitted effect of over 55% in size
# Conditions: HEK293 GLP-1R CRE-luciferase, luminescence, 24 h, GLP-1R form is constitutively active; activity change, negative = inhibition: at 38.3 µM (top of the series) unless noted
# Summary of the method: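 GLP-1R inverse agonism mode: basal reporter luminescence in engineered HEK293 cells measured after one day of compound exposure at 37 deg C, with a 12 min room-temperature detection step.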
# % is set by controls: 0 for no effect and ±100 for the full control effect; potency is the fitted concentration of half-maximal effect; tags give direction and shape of the fitted curve.
# Chain of UniProt P43220 (P43220 whole entry, looked up): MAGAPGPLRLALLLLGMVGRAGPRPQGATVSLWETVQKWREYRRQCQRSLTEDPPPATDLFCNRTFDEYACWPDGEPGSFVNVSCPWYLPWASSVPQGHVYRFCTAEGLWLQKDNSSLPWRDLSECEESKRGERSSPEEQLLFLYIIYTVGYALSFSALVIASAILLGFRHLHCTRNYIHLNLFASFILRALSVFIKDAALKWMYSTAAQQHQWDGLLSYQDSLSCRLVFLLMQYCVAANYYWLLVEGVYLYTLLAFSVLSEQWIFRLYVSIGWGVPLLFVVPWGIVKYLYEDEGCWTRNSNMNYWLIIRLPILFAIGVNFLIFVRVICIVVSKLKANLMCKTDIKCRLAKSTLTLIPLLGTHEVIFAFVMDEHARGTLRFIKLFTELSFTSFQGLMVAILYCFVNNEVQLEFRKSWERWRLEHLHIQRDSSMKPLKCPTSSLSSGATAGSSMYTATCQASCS
SMILES,Potency,"activity change, negative = inhibition"
Cc1oc2c(CN3CCCC3)c(O)ccc2c(=O)c1-c1ccc(Br)cc1,"inconclusive: 4.47 µM [inhibitor, full curve, poor fit]",–
CCc1cc(SC#N)cc(CC)c1NC(=O)CCl,"inconclusive: 22.4 µM [inhibitor, single point]",–
Cc1cccc(CS(=O)(=O)c2ncc(Cl)c(C(=O)Nc3nnc(C(C)C)s3)n2)c1,"inconclusive: 12.6 µM [inhibitor, single point] and inconclusive: 28.2 µM [inhibitor, single point]",–
CCOC(=O)c1sc(NC(=O)CN2C(=O)NC3(CC(C)CC(C)(C)C3)C2=O)cc1C (configuration not stated),"inconclusive: 11.2 µM [inhibitor, partial curve, poor fit]",–
CN1CCN(c2ccc(Nc3ccnc4cc(Cl)ccc34)cc2)CC1,active: 2 µM,–
CNC(=S)N/N=C/c1cc(Br)cc(Br)c1O,"inconclusive: 17.8 µM [inhibitor, partial curve, poor fit]",–
COc1ccc(N2C(=O)[C@H]3CCC=C[C@H]3[C@@H]2c2ccccc2Br)cc1,"inconclusive: 11.2 µM [inhibitor, single point]",–
COc1ccc(NS(=O)(=O)c2ccc3nc(COc4cccc5ccccc45)[nH]c3c2)cc1,"inconclusive: 10 µM [inhibitor, partial curve, poor fit]",–
O=C(CCN1CCOCC1)N1c2ccccc2Sc2ccc(Cl)cc21,"inconclusive: 28.2 µM [inhibitor, single point]",–
Fc1cccc(Cc2c(-c3ccccc3)nc3c(Cl)cc(C(F)(F)F)cn23)c1,–,inactive: 7.05%
Cc1c(Cl)cccc1NC(=S)N(CCCN1CCOCC1)Cc1cccs1,"inconclusive: 22.4 µM [inhibitor, single point]",–
CC(=O)NCC1(c2ccccc2)CCN(CC2COc3ccccc3O2)CC1 (configuration not stated),–,inactive: 6.94%
Cc1cccc(C)c1OCCOC(=O)c1n[nH]c2ccccc12,"inconclusive: 11.2 µM [inhibitor, single point]",–
Cc1ccc(-c2nnc(CCC(=O)NCC3C4CC5CC(C4)CC3C5)o2)s1 (configuration not stated),"inconclusive: 12.6 µM [inhibitor, single point]",–
C(=N\NC1=Nc2cccc3cccc1c23)/c1ccccn1,"inconclusive: 1.26 µM [inhibitor, full curve, poor fit]",–
CCOC(=O)c1c(-c2ccccc2)csc1NC(=O)CSc1nncs1,"inconclusive: 28.2 µM [inhibitor, single point]",–
CSc1ncnc2c1ncn2CCCNC1CCN(Cc2ccccc2)CC1,"inconclusive: 10 µM [inhibitor, single point]",–
O=C(NC(=S)Nc1cccc(Cl)c1Cl)C1CC1,"inconclusive: 12.6 µM [inhibitor, partial curve, poor fit]",–
O=C(Nc1ccc(N2CCCCC2)cc1)c1ccccn1,"inconclusive: 3.55 µM [inhibitor, full curve, poor fit]",–
COc1ccc(NS(=O)(=O)c2ccc(-c3coc(C)n3)cc2)cc1,"inconclusive: 28.2 µM [inhibitor, single point]",–
COc1ccc(NC(=O)CSCC(=O)N2c3ccccc3CCc3ccccc32)cc1,"inconclusive: 28.2 µM [inhibitor, single point]",–

SMILES,Potency,"activity change, negative = inhibition"
COc1ccc(C2=CC(c3cc(Br)ccc3F)n3c(nc4ccccc43)N2)cc1 (configuration not stated),"inconclusive: 28.2 µM [inhibitor, single point]",–
O=C(CN1CCCCC1)Nc1ccccc1-c1ccccc1,"inconclusive: 2.24 µM [inhibitor, partial curve, poor fit]",–
COc1ccc(N(CCCN2C(=O)c3cccc4cccc(c34)C2=O)C(=O)c2cccc(OC)c2)cc1,"inconclusive: 1.58 µM [inhibitor, partial curve, poor fit]",–
CC(NC(=O)c1ccccc1)c1ccc(Br)cc1 (configuration not stated),"inconclusive: 12.6 µM [inhibitor, single point]",–
O=C(c1ccc(F)cc1)c1cn(Cc2ccccc2)c2cc3c(cc2c1=O)OCO3,–,inactive: 6.49%
CCOc1ccccc1NC(=O)Cc1coc2ccc(C)cc12,"inconclusive: 12.6 µM [inhibitor, single point]",–
COc1ccc(CCNC(=O)c2ccc(Cl)cc2)cc1,"inconclusive: 11.2 µM [inhibitor, single point]",–
COc1ccc2oc(C(=O)OCC(=O)N(C)c3ccccc3)c(C)c2c1,"inconclusive: 11.2 µM [inhibitor, partial curve, poor fit]",–
CSc1cccc(NC(=O)c2cccc3cccnc23)c1,"inconclusive: 28.2 µM [inhibitor, single point]",–
CCCNC(=O)C1CC(=O)N(c2ccc(OCc3ccccc3)cc2)C1 (configuration not stated),"inconclusive: 11.2 µM [inhibitor, single point]",–
COc1cc(C(O)c2nc(-c3cccc(F)c3)cs2)ccc1F (configuration not stated),"inconclusive: 28.2 µM [inhibitor, single point]",–
CC/C(=C\c1oc2cc3ccccc3cc2[n+]1CC)Nc1ccccc1,"inconclusive: 28.2 µM [inhibitor, single point]",–
CC1CCCC(C)N1C(=O)CSc1nnnn1C1CCCC1 (configuration not stated),"inconclusive: 28.2 µM [inhibitor, single point]",–
Cc1ccc(NS(=O)(=O)c2ccc(NC(=O)C3CC3)cc2)c(C)c1,"inconclusive: 28.2 µM [inhibitor, single point]",–
Cc1ccccc1CN1C(=O)c2ccccc2Sc2ccc(C(=O)NCCN3CCOCC3)cc21,"inconclusive: 28.2 µM [inhibitor, single point]",–
COc1ccc2ccccc2c1CNC(C)CCc1ccccc1 (configuration not stated),"inconclusive: 8.91 µM [inhibitor, partial curve, poor fit]",–
COc1ccc2c(c1)CCc1c(C(=O)N3CC4(C)CC3CC(C)(C)C4)noc1-2 (configuration not stated),active: 12.6 µM,–
CCOC(=O)c1sc(NC(=O)/C=C/c2cnn(C)c2C)c(C(=O)OC(C)C)c1C,–,inactive: 20.3%
COC(=O)c1ccc(C2Nc3c(C)cccc3-c3cc(C)nn32)cc1 (configuration not stated),"inconclusive: 8.91 µM [inhibitor, partial curve, poor fit]",–
COc1cc(C)nc(N(Cc2ccccc2)S(=O)(=O)c2ccccc2)n1,"inconclusive: 12.6 µM [inhibitor, partial curve, poor fit]",–
COc1cc(Cl)c(C)cc1NC(=O)CC1CCCC1,"inconclusive: 10 µM [inhibitor, partial curve, poor fit]",–

SMILES,Potency,"activity change, negative = inhibition"
CN(C)c1ccc(P(=O)(Nc2cccc(C(F)(F)F)c2)N2CCOCC2)c(NC(=O)c2cccs2)c1 (configuration not stated),"inconclusive: 6.31 µM [inhibitor, partial curve, poor fit]",–
COc1ccc(CN2CCN(Cc3c[nH]c4ccccc34)CC2)c(OC)c1,–,inconclusive: -32.4% [inhibitor]
COc1cc(C(=O)NC(=S)N(CCc2ccccc2)CCc2ccccc2)cc(OC)c1OC,"inconclusive: 14.1 µM [inhibitor, single point]",–
CC(C(=O)N1CCCC1)N1CCN(S(=O)(=O)c2ccc(OC(F)(F)F)cc2)CC1 (configuration not stated),–,inactive: -14.2%
O=S(=O)(c1ccc(F)cc1)N(CCO)CC(O)Cn1c2ccccc2c2ccccc21 (configuration not stated),"inconclusive: 11.2 µM [inhibitor, partial curve]",–
C(#Cc1ccccc1)Cn1nnc2ccccc21,–,inactive: -3.84%
Cc1ccc(C)c(N(CC(=O)NCc2ccccc2)C(=O)c2csnn2)c1,–,inactive: -14.3%
COc1ccc(C(=O)Nc2ccc(Cl)cc2C(=O)N2CCCC(C)C2)cc1 (configuration not stated),"inconclusive: 7.08 µM [inhibitor, partial curve]",–
O=C(CCCN1C(=O)/C(=C/c2ccccc2Cl)SC1=S)N1CCCC1,active: 10 µM,–
COc1ccccc1N1CCN(C(=O)c2sc3nc(-c4ccc(F)cc4)cn3c2C)CC1,"inconclusive: 8.91 µM [inhibitor, partial curve, poor fit]",–
COc1cc(CN2CCc3ccccc3C2)ccc1O,"inconclusive: 11.2 µM [inhibitor, partial curve]",–
CC(C)(C)OC(=O)NCCc1nnc(SCc2cccc(Cl)c2)o1,"inconclusive: 31.6 µM [inhibitor, partial curve, poor fit]",–
COc1ccc(-c2sc3ccc(OC)cc3c2C#Cc2ccccn2)cc1,"inconclusive: 12.6 µM [inhibitor, single point]",–
Cc1ccc(N(C)S(=O)(=O)c2cccc(C(=O)N3CCN(Cc4ccccc4)CC3)c2)cc1,"inconclusive: 28.2 µM [inhibitor, single point]",–
CCOC(=O)c1ccccc1OCc1cc(/C=N/NC(=O)c2cccnc2)ccc1OC,"inconclusive: 14.1 µM [inhibitor, single point]",–
COc1ccc(-c2nnn(CC(=O)N(Cc3cccs3)C(C)C(=O)NCCC(C)C)n2)cc1OC (configuration not stated),"inconclusive: 10 µM [inhibitor, partial curve, poor fit]",–
CCOC(=O)[C@]12CCCC=C1N(Cc1ccc(Cl)cc1Cl)C(=O)[C@H](CC(=O)NCc1cccc3ccccc13)C2,"inconclusive: 14.1 µM [inhibitor, partial curve, poor fit]",–
CCN(CC)S(=O)(=O)c1ccc(N/N=C(\C)c2ccncc2)nc1,"inconclusive: 2.82 µM [inhibitor, full curve]",–
O=C(c1c(F)cccc1F)N1CCN(c2cccc(C(F)(F)F)c2)CC1,"inconclusive: 25.1 µM [inhibitor, single point]",–
O=c1c2ccccc2nc(SCc2cccc(F)c2)n1-c1cccc(S(=O)(=O)N2CCCC2)c1,"inconclusive: 2.51 µM [inhibitor, full curve, poor fit]",–
